The full ranking holds about 16,000 sequences; the median of “Z-score” is about -0.37, and the highest 2% start at about 3.2. This is one part of the list.
Each sequence was assayed on RBM10 RRM1-ZnF (GST-tagged construct) (assay: RNAcompete 7-mer binding Z-score; higher = stronger binding preference).
Procedure, shortened: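 GST-tagged RBM10 constructs (20 pmol) and a designed pool of 241 399 RNAs up to 41 nt (1.5 nmol) were allowed to bind for 30 min at 4°C in 1 ml Hepes pH 7.8 buffer with glutathione Sepharose beads. After four 2-min washes at 4°C, bound RNA was identified by microarray hybridisation. Enrichment was scored per heptamer motif as a one-sided Z-score across the probes containing it.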

| Sequence | RNAcompete 7-mer binding Z-score |
| --- | --- |
| UUAUGUU | -0.542 |
| AGCGAGA | 0.686 |
| CGGGUAC | 1.17 |
| UGAGUGA | 0.956 |
| CACCACA | -0.496 |
| CGGAAUC | 0.0235 |
| UCUAGGA | 0.144 |
| ACGUAAC | -0.454 |
| UUGAAAA | -0.386 |
| GCCGUGU | -0.383 |
| GACAAAA | -0.11 |
| GUUACGU | -0.0837 |
| UCUCUAU | -0.743 |
| CCGCCAA | -0.604 |
| ACGGCAA | 0.192 |
| UGUACAC | -0.24 |
| UUACACG | -0.604 |
| UUCCCCU | -0.558 |
| AAUCUGA | -0.704 |
| GGAGCAG | 2.11 |
| GGUGCUU | 0.501 |
| UUUAGCG | -0.467 |
| GGCCAAA | -0.418 |
| GCUGCAU | -0.201 |
| CAGCUCU | -0.681 |

| Sequence | RNAcompete 7-mer binding Z-score |
| --- | --- |
| AUCAGUC | -0.454 |
| UGACCGU | -0.568 |
| UAUACUG | -0.513 |
| GGCUCAG | 0.261 |
| AUGCGAC | -0.123 |
| GCUUCGG | -0.168 |
| CACAAUA | -0.714 |
| GUCACUC | -0.519 |
| CAAGUAA | -0.275 |
| ACUAUGU | -0.412 |
| GGGCAGA | 2.45 |
| CACUUGC | -0.668 |
| GGCACCA | -0.116 |
| CGCUUCU | -0.902 |
| GGAUGAG | 3.4 |
| UGUAGAC | 0.0235 |
| CAUUUAU | -0.808 |
| GGCGCUA | 0.192 |
| UGCACAU | -0.431 |
| ACGUAAA | -0.0934 |
| AAGCGAU | 0.309 |
| GCAAAAC | -0.0902 |
| GGAGAGA | 1.46 |
| CUCCCAC | -0.545 |
| UUGAUGG | 1.35 |

| Sequence | RNAcompete 7-mer binding Z-score |
| --- | --- |
| AUAGAGC | 0.16 |
| CAGUUCA | -0.607 |
| GCGCAAA | -0.181 |
| UCACCGU | -0.759 |
| AGGGUGA | 4.19 |
| UAACGCC | -0.789 |
| UUUAGUC | -0.704 |
| GUUCUCG | -0.678 |
| CGACGCA | -0.36 |
| UGUUCGA | -0.581 |
| GAAUUCA | -0.415 |
| UAGGGAC | 1.79 |
| AGCGCGC | -0.347 |
| GGCUUGG | 1.54 |
| AGCGGGA | 3.31 |
| GUCAUGG | 1.11 |
| UAGGAAA | 1.47 |
| GUUAGCA | 0.173 |
| CCAACGA | -0.431 |
| UGUAUGC | -0.158 |
| UUUUGUA | -0.694 |
| GGGGUUC | 1.79 |
| UCUUCAG | -0.675 |
| GGGUAUU | 2.23 |
| UAACGAG | -0.00571 |

| Sequence | RNAcompete 7-mer binding Z-score |
| --- | --- |
| AGGGACC | 0.54 |
| CUGACGC | -0.652 |
| UCUAAAG | -0.578 |
| CCAUCGG | -0.578 |
| GCUAGGG | 2.5 |
| UUGAGGC | 0.115 |
| GAUAUUC | -0.503 |
| UUGCGCC | -0.509 |
| CCAGCUG | -0.422 |
| CCCGCAA | -0.685 |
| AACGUUA | -0.347 |
| GCCCCGC | -0.158 |
| UUCAGGC | -0.431 |
| UCGUCAA | -0.594 |
| ACGAGGA | 1.33 |
| CCUAUCU | -0.873 |
| CCCGGAU | -0.399 |
| CUUCUGG | -0.717 |
| UCAUAAG | -0.672 |
| ACGACAG | 0.186 |
| GGCCCAA | -0.379 |
| GCCGGUC | -0.425 |
| CUAGUUC | -0.876 |
| CGAUCAG | -0.0739 |
| UUCCAGG | -0.194 |
